# Measured values: the RNAGym collection of RNA variant scans (doi:10.7554/elife.90254)
# The source gives no read counts; variants with many changes may rest on few reads.
# B1: OR4K15 (parent)
# chain: GUUAACGGUCAUAGGCCAUGGAAACUAGGAGCACCAUUUCGCUGCCAGUGAAGAAAUGAACAAAGAAAAUCUGGGCCAGGCAGGCAUCAAAAGAAAUAGUCUUGCGCUCAACCAGAAAGUCUGUAAUCAUUUUAAGGGUA
# Variants of: B1
# Assay: self-cleavage, relative activity (ratio to wild type); higher = more cleavage; in vitro, sequencing; the parent is a self-cleaving ribozyme
row,Variant,self-cleavage
1,A78U U87C A96G C101A,0.03
2,U2C U12C A27U,1.1
3,A13G A82U A114U,0.08
4,U9C U43A A96G,2.31
5,A33G A89U A98G,0.33
6,A5G C6U U49C A60G,1.31
7,A5G A13G U37G A56G,0.39
8,U26C A33G U37C A54U A63G A89G U100C U131C,0.88
9,A23G A27G U38C U57A U87C,1.18
10,U2C A11G A36U,1.41
11,U2C U39C U122C,0.76
12,A55G A59U U127A,1.79
13,A22G A30G U102C,1.78
14,A90G A91G U124C,0.34
15,A78U U100C A117G,1.26
16,U12C U39C U102A,1.25
17,A60C A86G U122C U130A,0.82
18,U2C U70A A89G,0.46
19,C34U A59G A68G A95U A98G,0.19
20,A13G A30G A92G A140G,0.93
21,A54G U57C A92G A114G A118G U124C,0.02
22,A96G A111G A118G C128U,0.02
23,A4G A69G A96G,1.21
24,A13G A30G U37C U131C,1.27

row,Variant,self-cleavage
1,U43C A64G A94G U100C,1.73
2,A69U A92G A126U,1.99
3,U12A A22G A63G A64G U100C U102C,1.38
4,U9C A52G A78G A94G,0.35
5,A86G U100C U102A,1.56
6,A11G U37C A94U G106A U132C,0.04
7,G14A A24G A82G,0.66
8,A5U A82G U102C,1.03
9,A30U U100C U102C,1.32
10,A18G A27G U38C A78U,0.83
11,U37C U39C A60G A91G,0.73
12,U2C A55G A111G U127C,0.01
13,A11G A18G A67G,1.37
14,A30G A95G A96G U108C,0
15,A63G A89G A94G A111G A129U,0.03
16,A33U U70C A89U,0.97
17,U9C A51U A125G,1.52
18,U9G A64G A96G A111G,0.02
19,A51G A60U A78U A111G,0.02
20,U9C A22G A24G A92G U130C,1.21
21,A5G C17U A78G A91G U127A,0.14
22,A51G A59G A62G A89G,0.72
23,A89U A90G A140G,1.11
24,A22G A63G G123A U127A,1.46

row,Variant,self-cleavage
1,U43A A52G A78G,0.23
2,U19C U38C U49C,0.33
3,A18G A27G U49A A82G C105A,0.06
4,U39C A86U A92G,0.62
5,U19A U39C A56G U102C U103C A140G,0.01
6,U57C U97C U102C U108C,0.01
7,G8U A33G A114C,0.02
8,A24G A82G U103A,0.36
9,A4C A13G A36G,1.26
10,U38C A66G U87C A94G U108C,0.01
11,U38C A52G A95G,1.68
12,A27G A59G A64G A86U A94G,1.05
13,A60G U87C A95G,1.43
14,U87A U120C A125G,0.19
15,A33G A36U G79A A118G,0.03
16,U39A A47U A56G A134G,1.39
17,U9A A62G A126G,1.41
18,A60G A68G A90U A92G U103C C107U,0
19,G31C A47U A62G U87C U130A,0.22
20,A23G U39C U43C,0.91
21,A33G U100C U122C,1.69
22,U43C C45G A125G A135U,0.27
23,A13G A60C A98U,1.61
24,A67G A69U A78G G106U,0.01

row,Variant,self-cleavage
1,G28U A52G A54G A64G,1.59
2,A47G A63G A82G A140G,0.43
3,A33G A36U U102C G138U,1.32
4,A92G C101U U133C,0.49
5,A5U A51U A69G,1.05
6,U37C A60G A90G U103C,0.24
7,A55C U57C A69G U72C,0.21
8,U19A A63U A92G G93A,2.18
9,A24G A54G U127C,0.67
10,A18G A30G A69G,1.7
11,A47G G106A U131C,0
12,A13C U19A G20A A91G,1.21
13,U37C U70C U103C A129U U131G,0.14
14,A18G A60G U87C U131C,0.66
15,A18G U43C U131C,1.83
16,U2C U9A U38A A125G,0.49
17,A62C A86G A89G,1.36
18,U43A U124C U130C,0.56
19,A4G C32U U38A C101U U108C C121U,0.03
20,U39C C45G A56G A59G A129C,0.98
21,A11U A22G A67G U70C A96G,0.83
22,U124C A126G U127C,0.23
23,A22G G44A U102C,1.52
24,A89C U102G U131C,0.2

row,Variant,self-cleavage
1,A52G A69G A134G,1.02
2,U2C A24G U38C,1.05
3,U38A G73A A110G,0.03
4,A66G A68G A69G U108C,0.07
5,A33G U37A U49C C76U A134G,0.05
6,A5G U39C A55G A62U G104A,0.13
7,U72C A86G A117U A125G,0.07
8,A23G A51G A117G A126G,1.99
9,A51G A59G U87C,0.64
10,A11G C46U U87C A94G U124A A125U,2
11,G53A A59G A89G A111U U139G,0.05
12,U38C A62G A66C A69G A78G A98G A111G,0.04
13,A68G A90G U103C,0.74
14,A5G A55G U70C,0.92
15,A59G A95G A98U U108C,0
16,A11G A54G U103C,0.99
17,A60G U122G A126U,1.75
18,A11G A69U U87C,1.23
19,U108C A116G U120C,0
20,A27G A118G U127C,0.28
21,A30G A60G U103C,1.35
22,A5G A54U A64G U70C U120A,1.22
23,A59G A91G A117U,0.66
24,A59G U87C A89G,0.73

row,Variant,self-cleavage
1,C25U A52G A90U U97A,0.41
2,C46U A86G A95G A135U,1.79
3,A82G G123A U127C,0.24
4,A22G U39G A117G,1.42
5,A54G A92U A126G,0.65
6,A23G U38C A63C U120A,1.57
7,U38C A52G U131C,2.12
8,A82G A117G U122C A135U,0.19
9,C32U U100C U102C U131C,2.12
10,U49A G74A A98G,0.07
11,A24G A30U A63C U132C,1.42
12,C16U A117G U120G,1.52
13,A18U A24G A66G,1.56
14,U43A A118U U127C,0.51
15,G7A A30G A60U A125G,0.39
16,A69G A89G U139C,2.21
17,U57C A64G A111U A140G,0.04
18,U3C C25U A59G,1.07
19,A27G A60G A69G A117G U139C,0.84
20,C16A A89G A96G,1.23
21,A11G U43C A47G A63U U108C C121A,0.05
22,A23U U26A U49C A94G,1.08
23,U12C A23U A94G U100C U131A,2.02
24,G8A U39C U49C A60G A96U A117U,0.56

row,Variant,self-cleavage
1,A86G U108A U124C A126U,0
2,A23G A54G U57C,0.92
3,A5G U49C A60G A89G A90G A91G A111G,0.13
4,A30U A33G A98G U122C,0.51
5,G41A A54G A89G,1.72
6,A60G C76G G99A U122A,0.09
7,U38C U87C A90G,0.37
8,U49C U57C A62G U133C,1.1
9,A24G U57G A59G A117G U130C,0.91
10,U49C A78G A94G,0.15
11,U26C A55G U103C,0.38
12,U70C A82G A116G G123U,0.95
13,U39A A89U U120C,1.28
14,A67U A86C A96G U122A U127C,0.74
15,A22G C32U A62G A110G U130C,0.05
16,A5G A60U A64G A126G,1.51
17,U9C A23G U49C U102C A135G,0.7
18,A23G U57C A78G A140G,0.04
19,U19A A22G A64U A117G,2.23
20,A33G U49C A91G U100C A118G,2.63
21,A22G A96G U103C A117U,0.64
22,A56G U122C A126G,0.96
23,G29A A30G A116G,0.98
